In all, about 110,000 compounds were measured (“z-score”: median about -0.1, highest 2% from about 2 on). The list shows a part of the results. Active and inactive are the calls of the source.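 How the source made its calls: active means z-score in the third read window above 3 or below -3; inactive means the rest.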
Molecular target: Metabotropic glutamate receptor 8 (Rattus norvegicus) (UniProt P70579)
Experiment: mGluR8 Gi/Go-coupled signaling modulation – cell-based, rat, thallium flux, HTS, primary screen (AID 488969)
Details: HEK293 rat mGluR8, GIRK (G protein-gated inwardly rectifying potassium channel) thallium flux, FluoZin2; at 10 µM; stronger effect = higher value; submaximal glutamate (EC20) added with thallium

Sequence of UniProt P70579 (P70579 whole entry, looked up): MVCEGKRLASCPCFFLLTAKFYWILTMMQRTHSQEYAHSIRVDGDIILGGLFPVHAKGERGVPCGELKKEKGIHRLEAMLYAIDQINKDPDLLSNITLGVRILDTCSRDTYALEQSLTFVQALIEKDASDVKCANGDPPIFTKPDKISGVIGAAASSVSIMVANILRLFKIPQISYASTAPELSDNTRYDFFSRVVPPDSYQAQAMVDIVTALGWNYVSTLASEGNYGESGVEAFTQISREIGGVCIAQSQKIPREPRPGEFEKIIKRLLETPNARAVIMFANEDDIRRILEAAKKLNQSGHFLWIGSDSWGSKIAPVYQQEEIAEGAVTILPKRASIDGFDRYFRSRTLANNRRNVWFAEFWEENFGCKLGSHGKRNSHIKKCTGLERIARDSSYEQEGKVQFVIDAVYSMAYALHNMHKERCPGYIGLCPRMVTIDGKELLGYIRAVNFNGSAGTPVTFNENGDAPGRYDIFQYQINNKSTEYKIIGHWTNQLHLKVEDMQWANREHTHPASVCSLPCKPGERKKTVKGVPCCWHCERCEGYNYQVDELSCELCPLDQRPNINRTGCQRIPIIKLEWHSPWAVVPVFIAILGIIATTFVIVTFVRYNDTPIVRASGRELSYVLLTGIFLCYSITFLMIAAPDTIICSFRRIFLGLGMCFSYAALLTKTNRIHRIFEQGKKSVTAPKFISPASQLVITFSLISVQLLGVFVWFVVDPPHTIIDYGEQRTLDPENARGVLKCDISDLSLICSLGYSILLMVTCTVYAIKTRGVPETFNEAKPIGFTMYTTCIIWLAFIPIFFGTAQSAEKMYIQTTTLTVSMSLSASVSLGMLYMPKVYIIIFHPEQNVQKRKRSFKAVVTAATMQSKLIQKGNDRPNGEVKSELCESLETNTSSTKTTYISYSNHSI

Row | SMILES | z-score
1 | Clc1cc(NCc2cccs2)ccc1N1CCOCC1 | -0.0119
2 | CCN(CC)S(=O)(=O)c1cccc(NC(=O)COC(=O)CCc2nc3ccccc3s2)c1 | -0.451
3 | Cc1csc(SCC(=O)Nc2cc(S(=O)(=O)N3CCCC3)ccc2Cl)n1 | -0.654
4 | Cn1cnnc1SCC(=O)Nc1cccc(C(=O)O)c1 | 0.58
5 | CN(C)CCCNC(=O)c1cc(Br)ccc1Cl | -0.48
6 | Cn1c(=O)c2c(SCC(N)=O)nc(CC(C)(C)C)nc2n(C)c1=O | -1.33
7 | Cc1cccc(NC2=C(NC(=O)c3ccccc3)C(=O)c3ccccc3C2=O)c1 | -0.389
8 | CCOC(=O)CCCCC(=O)c1[nH]c(=O)[nH]c1Cn1cnc2ccccc21 | -0.0693
9 | CSc1c(C#N)c(N)c(C#N)c2c1COC(C)(C)C2 | -1.03
10 | CCN(CCCNC(=O)c1[nH]c(C)c(C(C)=O)c1C)c1cccc(C)c1 | -1.09
11 | Cc1ccc(-c2nnc(N3CCCCC3)c3ccccc23)cc1S(=O)(=O)N(C)C | -0.192
12 | COc1ccc(S(=O)(=O)Nc2cc(C)ccc2OC)cc1C | -0.396
13 | COc1ccc(-n2c3c(cc(C(=O)N4CCN(CCO)CC4)c2=O)C(=O)CC(C)(C)C3)cc1 | 0.0856
14 | COc1ccccc1C(=O)/C=C/c1ccc(N2CCCCC2)c([N+](=O)[O-])c1 | 0.232
15 | Cc1cnnc2ccc3c(no[n+]3[O-])c12 | 0.292
16 | Cc1ccc(-c2nnn(CC(=O)N3CCN(c4ccccc4)CC3)n2)o1 | 0.183
17 | Cc1ccc(CC23CN4CCN(CC(C4)C2O)C3)c(C)c1 (centres undefined) | 0.287
18 | CCOC(=O)N1CCC(Nc2ncnc3c2cnn3-c2ccc(Cl)cc2)CC1 | -0.158
19 | CCC(CC)C1C(C#N)=C(N)Oc2n[nH]c(-c3ccccc3)c21 (centres undefined) | -0.557
20 | Cc1cc(C)nc(N2CCC(C(=O)N3CCN(c4cc(Cl)ccc4C)CC3)CC2)n1 | 0.224
21 | CCC(=O)Nc1nnc(SCC(=O)Nc2ccc(F)cc2)s1 | -0.976
22 | Cc1ccccc1N(CC(=O)NCc1ccncc1)S(C)(=O)=O | 0.0408

Row | SMILES | z-score
23 | CN(c1ccccc1)S(=O)(=O)c1ccc(NC(=O)C2CCCCC2C(=O)O)cc1 (centres undefined) | -0.0354
24 | Nc1nc(N)nc(-c2ccc(Oc3ccccc3)cc2)n1 | -0.35
25 | CC1=C(C(N)=O)C(c2ccc(Cl)cc2Cl)n2ncnc2N1 (centres undefined) | 0.288
26 | Cn1c(=O)[nH]c(NC2CCCCC2)c(N=O)c1=O | -0.267
27 | COc1ccc(NC(=O)c2cncc(Br)c2)c(S(=O)(=O)N2CCOCC2)c1 | 0.95
28 | O=C(CN1CCN(c2ccccc2)CC1)Nc1ccc(OCc2ccccc2)cc1 | 0.0718
29 | Cc1ccc(NC(=O)CN2C(=O)/C(=C3\SC(=S)N(C4CCS(=O)(=O)C4)C3=O)c3ccccc32)cc1 (centres undefined) | 0.389
30 | CCN(CC)S(=O)(=O)c1ccc(-c2nnc(SCC(C)=O)o2)cc1 | 0.094
31 | CCOC(=O)c1oc2ccc(S(=O)(=O)n3nc(-c4ccccc4)cc3N)cc2c1C | -0.0165
32 | CCOc1nc(-c2ccc(C)cc2)ccc1-c1noc(-c2cccnc2)n1 | 0.44
33 | CCOC(=O)C1(CCC(C)C)CC(CSc2nc3ccccc3[nH]2)OC1=O (centres undefined) | 0.321
34 | O=C(O)CNc1nc(Cl)ccc1[N+](=O)[O-] | 0.0424
35 | CCCCOC(=O)Nc1ccc(N2CCOCC2)cc1 | -0.696
36 | COc1cccc(C(=O)N(Cc2cc3cc(C)ccc3[nH]c2=O)C(C)C)c1 | -0.718
37 | COc1ccc(-n2c(=O)c3c4c(sc3n3cnnc23)CC(C)CC4)cc1 (centres undefined) | -1.74
38 | CCCCOC(=O)C1=C(C)Nc2ncnn2C1c1cccc(OC)c1OC (centres undefined) | -0.995
39 | Cc1cc(C)nc(SCc2cc(=O)c(OC(=O)c3ccc(S(=O)(=O)N(C)C)cc3)co2)n1 | -0.616
40 | CC(C)=CCC/C(C)=C/CC(C)(C)CNCCN1CCNCC1 | -0.0374
41 | Cc1ccc2[nH]c(=O)c(C(c3nnnn3Cc3ccccc3)N3CCc4ccccc43)cc2c1 (centres undefined) | -0.323
42 | CCOC(=O)C1CCN(C(=O)c2cccnc2Cl)CC1 | 0.209
43 | CCc1c(O)cc2n(c1=O)-c1ccccc1C2(C)C | -0.409
44 | COc1ccc(-c2cc(C(=O)OCC(=O)c3ccc(C)c([N+](=O)[O-])c3)c3ccccc3n2)cc1 | -0.11

Row | SMILES | z-score
45 | COc1ccc(-c2cc(C(=O)N/N=C/c3ccc4c(c3)OCO4)c3ccccc3n2)c(OC)c1 | -0.128
46 | Cc1cccc(N(CC(N)=O)S(C)(=O)=O)c1C | -0.72
47 | CCc1nnc(SCc2ccc(CSc3nnc(CC)n3N)cc2)n1N | 0.166
48 | COc1ccc(Cl)c(Cn2c(NCc3ccco3)nc3c2c(=O)n(C)c(=O)n3C)c1 | -0.0771
49 | O=[N+]([O-])c1cc(-n2cnnn2)ccc1N1CCC(Cc2ccccc2)CC1 | -0.164
50 | CCCN1Cc2cccc(C(=O)Nc3ccc(-c4nc5ccccc5[nH]4)cc3)c2C1=O | -0.0402
51 | O=C(O)c1cccc(-n2nnnc2SCc2ccccn2)c1 | 0.00567
52 | CCOC(=O)c1sc(NC(=O)c2ccc(S(=O)(=O)N3CCOCC3)cc2)cc1C | -0.134
53 | CCCCCCCC(=O)N/N=C(/C)c1c(O)cc(C)oc1=O | 0.177
54 | O=C(NN=C1CCCCCCCCCCC1)c1cccc(S(=O)(=O)N2CCOCC2)c1 | -0.137
55 | CCOC(=O)c1cnn(-c2cc(Oc3ccccc3)ncn2)c1N | -0.0804
56 | Cc1cc(OCC(=O)Nc2ccc3c(c2)OCCO3)cc(C)c1Cl | 0.295
57 | O=C(NCc1ccccn1)c1ccc(COc2ccc(Cl)cc2)o1 | -0.811
58 | CCOP(=O)(c1ccc(N(C)C)cc1)C(O)c1ccccc1OC (centres undefined) | 0.0739
59 | C/C(CC(=O)NCCCN1CCOCC1)=N\NC(=O)COc1ccc(C)cc1 | -0.624
60 | CN(C)CCCNC(=O)Cc1ccc(Br)cc1 | 1.07
61 | COc1ccc(OC)c(C2=NOC(C(=O)NCCN3CCOCC3)C2)c1 (centres undefined) | 0.0749
62 | CCCN(CCC)CCCNc1ccc2nnc(-c3ccc(F)cc3)n2n1 | 0.263
63 | COCC(COCCCNC(=O)Nc1ccc(Br)cc1)OC (centres undefined) | 0.0356
64 | O=S(=O)(NCc1csc(-c2cccnc2)n1)c1ccc(Cl)s1 | 0.124
65 | O=C(COC(=O)CNS(=O)(=O)c1ccc(F)c(F)c1F)Nc1ccc(OC(F)F)cc1 | 0.677
66 | Cc1cc(C)cc(-n2nnnc2-c2cn(C)nc2C(F)(F)F)c1 | -0.187

Row | SMILES | z-score
67 | COc1cccc(-n2nnc3c(=O)n(Cc4cccc(F)c4)cnc32)c1 | -0.071
68 | CC1(C)CC(=O)C2=C(C1)NCN(Cc1ccc3c(c1)OCO3)C2 | 0.218
69 | Cc1ccccc1NC(=O)c1c(C)nn(-c2ccccc2)c1Cl | -0.279
70 | Cc1c(C)c2cc(Cl)c(OCc3nn[nH]n3)cc2oc1=O | -0.0346
71 | O=C(N/N=C/C(Cl)=C/c1ccccc1)c1cnccn1 | 0.219
72 | CC(C)(C)NC(=O)Cn1nnc(-c2ccccc2NC(=O)c2ccco2)n1 | 0.169
73 | Cc1cccc(Nc2ccccc2C(=O)NCc2ccco2)c1C | -0.199
74 | O=C(CSc1nnc(-c2ccc3c(c2)OCO3)o1)Nc1ncc(Cl)cc1Cl | -0.299
75 | Cn1c(=O)n(CC(=O)N2CCN(c3nnc(-c4ccccc4)c4ccccc34)CC2)c2ccccc21 | 0.153
76 | Cc1ccc(-c2nnc3ccc(SCC(=O)NCc4ccco4)nn23)cc1 | -0.802
77 | CCCn1nc2cc(C(=O)NCc3ccc(OC(F)(F)F)cc3)ccc2c1OCC | -0.872
78 | COc1ccc2c(CSc3nnc(-c4cccnc4)n3-c3ccccc3F)cc(=O)oc2c1 | -0.209
79 | c1ccc(COc2ccc(OCCn3cncn3)cc2)cc1 | -0.123
80 | CCc1nc(SC)[nH]c(=O)c1C | -0.134
81 | CC1CCN(C(=O)c2ccc3c(c2)OCCO3)CC1 | 0.598
82 | COc1ccccc1C(=O)NC(=S)/C=C1/N(C)c2ccccc2C1(C)C | -1.92
83 | O=C1c2cccc3c(N4CCCCC4)ccc(c23)C(=O)N1c1ccc(Cl)cn1 | -2.33
84 | CCn1nc(CC(=O)Nc2nnc(CC(=O)N3CCCC3)s2)c2ccccc2c1=O | -0.065
85 | O=C(CCCOc1ccc(Cl)cc1Cl)N1CCCc2ccccc21 | -0.0365
86 | O=C(C1CCN(S(=O)(=O)Cc2ccccc2)CC1)N1CCN(c2ncccn2)CC1 | -0.444
87 | CCn1c(SCC(=O)N/N=C/C=C/c2ccco2)nnc1-c1ccccc1 | -0.239
88 | CCc1ccc(NC(=O)N(CCN(C)C)C(C)c2cccnc2)cc1 (centres undefined) | -0.594

Row | SMILES | z-score
89 | CN(CCC#N)C(=O)c1ccc(CNS(=O)(=O)c2ccc(F)cc2)cc1 | 0.116
90 | Cc1cc[n+](CCC(=O)O)c2ccccc12 | 0.137
91 | Cc1cccc(C)c1NC(=O)C1=C(O)c2ccccc2N(C)S1(=O)=O | 0.0397
92 | O=C(C1CC(c2ccc(F)cc2)=NO1)N1CCCCC1 (centres undefined) | -0.0299
93 | O=C(COc1ccccc1)NC1CCCc2ccccc21 (centres undefined) | -0.169
94 | CCC12OC(=N)C(C#N)(C1C)C(C#N)(C#N)C(c1ccccc1)O2 (centres undefined) | 0.027
95 | CC1CCN(S(=O)(=O)c2ccc(Oc3ccc([N+](=O)[O-])cc3)cc2)CC1 | 0.112
96 | CC1=CC(C)(C)N(C(=O)CSc2nncn2C)c2ccccc21 | 0.631
97 | N#CC(C(=O)NCCc1ccccc1)c1nc2ccccc2nc1N1CCCCC1 (centres undefined) | -0.0219
98 | CCOC(=O)N1CCC(NC(=O)c2ccc3c(c2)N(C)CCS3)CC1 | -0.163
99 | COc1cccc(OC)c1OCCCOc1ccc(C)cc1Br | -0.324
100 | CCCc1ccc(OCC(=O)NNC(=S)NC(=O)c2ccco2)cc1 | active: 5.78
101 | O=C(Cn1c2c(sc1=O)C1c3ccccc3OCC1CS2)Nc1ccc(Cl)c(Cl)c1 (centres undefined) | -0.0375
102 | O=C(NCc1ccc(Cl)cc1)c1ccc(Br)o1 | -0.241
103 | C(=N\Nc1nc(-c2ccccc2)cs1)/c1cccnc1 | -0.215
104 | COC(=O)NNC(=O)/C=C/c1ccccc1 | -0.0867
105 | Cc1ccccc1C(=O)Nc1ccc2c(C#N)c3nc4ccccc4nc3n2c1 | -0.0106
106 | COc1ccc(C2C(C#N)=C(N)OC3=C2C(=O)CCC3)cc1Cn1cc([N+](=O)[O-])cn1 (centres undefined) | -0.148
107 | O=C(c1cc2nc(C3CC3)cc(C(F)F)n2n1)N1CCOCC1 | -0.285
108 | COc1ccc(-n2c(=O)cc(N3CCOCC3)[nH]c2=O)cc1 | 0.418
109 | C=CCn1c(-c2ccc(OC)cc2)nc2ccccc21 | -0.63

Source: PubChem BioAssay AID488969 (Vanderbilt High Throughput Screening Facility, 2010)
